Results as given in the supplement of paper PMC11417369.
± gives the standard deviation of the averaged measurements. The list shows a part of the results.

Test system: PfAP2-G AP2 domain (GST-tagged)
Test: gcPBM binding intensity (ln(normalized median fluorescence intensity)); higher = stronger DNA binding
Summary of the method: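 Alexa488 anti-GST antibody, scanned at 488 nm, detected GST-tagged P. falciparum DNA-binding domains that had been expressed in E. coli and incubated for 1 h on an Agilent 4 × 180k array. The array carried primer-extended double-stranded 36-bp intergenic genomic probes and negative controls. Binding intensity is the highest Masliner-normalised natural-log median intensity across replicate spots of either orientation of each probe.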

| Sequence | gcPBM binding intensity (ln) |
| --- | --- |
| CCTTTCCTTTTATAAGTGCATATAACAAATGTATAC [GTGCAC_site9872] | 10.3 ± 0.24 |
| TTTTATTTATCATACACACACAGAAAAAAAAAAAAA [CACACA_site158] | 9.94 ± 0.52 |
| AATAATGAAAAATCAAATAACCTAAATTACAACTGT [XGTACX_negctrl_site65] | 9.875 ± 0.078 |
| AAAAATAAAAAAATAAAAAATAAAAAAATAAAAAAT [CACACA_negctrl_site1425] | 9.415 ± 0.021 |
| TATATACACACCGTGTGTACATATACATTAACTGAA [XGTACX_site7120] | 11.2 ± 0.76 |
| GTTATATATGATGGAAGCACTTGGAAGAGGGAAATA [CACACA_negctrl_site1831] | 9.94 ± 0.15 |
| GATAAATATTTAATATGTACATATATTATATATATA [XGTACX_site117] | 11.2 ± 0.65 |
| ATATATTATATATGCGCACACACGAATTTTTTTTTT [CACACA_site2393] | 10.3 ± 0.12 |
| ATTAAAGTTATAAATTCACACATGTAAATGTATTTA [CACACA_site5279] | 9.85 ± 0.11 |
| TCGAAAATGACGAATGGTACAGTATGTATAAAAATA [XGTACX_site1258] | 10.9 ± 0.53 |
| ACTTTTTTTTTGTGTGTGCACTCGATTATATACATA [GTGCAC_site9846] | 10.7 ± 0.44 |
| TACACTAATGACAGTTGTACTTTTATTCGATAGAAT [XGTACX_site738] | 11.4 ± 0.85 |
| TATATATATATAATATGTACATATATACATGCCTTG [XGTACX_site2791] | 11.1 ± 0.69 |
| TATCTGTAAACATATTCACACACATAAATTCGCATA [CACACA_site8557] | 10.03 ± 0.064 |
| TATATATACATACGTACACACAAATATTAAAATATA [CACACA_site1951] | 11.5 ± 1.1 |
| TCAAAATTGCTTTGTTGTACTAATAAAATTTATTAC [XGTACX_site1121] | 11.2 ± 0.64 |
| ATGGCATAAATATATGCACACACAAAAAAAAAAAAA [CACACA_site7902] | 9.95 ± 0.35 |
| AATATTATAAAATATTGTACTTAAAAAATTATTAAA [XGTACX_site2469] | 11.3 ± 0.82 |
| TAAATTTTTTCTTTTTGTACATATTTTAAAAATGTT [XGTACX_site7526] | 11.1 ± 0.49 |

| Sequence | gcPBM binding intensity (ln) |
| --- | --- |
| TTTCTTTTTTTTTGAAGTACATAAAAATATAAAAAA [XGTACX_site311] | 11.6 ± 1.1 |
| ATATATATATGTATGTATATATATATATATATGTTT [CACACA_negctrl_site248] | 9.96 ± 0.6 |
| AAAAAGAAAAAGAGCACACAAAAATATTTAACCTTT [CACACA_site2747] | 10.03 ± 0.014 |
| AAAACACAAAAAAAATGTACACATATATATATATAT [XGTACX_site8509] | 11.3 ± 0.89 |
| ATATTAATTCTACATTGTACACATGAAAAAATATAA [XGTACX_site8759] | 11.4 ± 0.96 |
| TAACTATATTTTTACTGTACAAAAAAATTAAATAAT [XGTACX_site1765] | 11.1 ± 0.71 |
| GTTATATATAATAATTGTACAAAATTAAATATAACT [XGTACX_site4189] | 10.8 ± 0.49 |
| TTTTTATTTGGTTGTGTACACATATATATATATATA [CACACA_site5844] | 11.6 ± 0.94 |
| AAAAAACACCCACATACACACAAAAATGTTATAAAT [CACACA_site81] | 10.2 ± 0.3 |
| CATTATGTCGTAAATACACACATACAGATACATACA [CACACA_site4880] | 10.3 ± 0.22 |
| AAATTAAATAAATTTACACACTAAAAATTACAGATA [CACACA_site4722] | 9.88 ± 0.028 |
| CTAAGAAAAAATAAAGCACACAAATATTTTAAAAAC [CACACA_site9094] | 10.01 ± 0.014 |
| TAAAGTAAAACAAGGTAAGGTTTTTCTTTTTCTTTT [CACACA_negctrl_site1271] | 9.48 ± 0.18 |
| AAAAAAAAATGTCATGGTACACAATTTTTTCTTTTT [XGTACX_site4505] | 11 ± 0.56 |
| AAACATAAGGGACACACACACATATATATATATATA [CACACA_site5920] | 10.8 ± 0.61 |
| CAAAAAAACAAACACACACACACACCGATATATATA [CACACA_site9218] | 9.94 ± 0.16 |
| TGAAGTGCAAAATACTGTACGTAATGTGCTTGTTAC [XGTACX_site4512] | 11.5 ± 0.87 |
| AATAAATTATGAACGGTGCAGGAAAAATTGTAACAT | 10.18 ± 0.028 |
| TAGATTATTTTATTTAGTACATAAAAAAGTAAGACC [XGTACX_site7889] | 11.1 ± 0.77 |

| Sequence | gcPBM binding intensity (ln) |
| --- | --- |
| TTAAATAAATAAAAATGTACATGCATATATAAATAT [XGTACX_site8908] | 10.9 ± 0.38 |
| AATTTTTTATATGTCACACATTTGTTATTATTATTA [CACACA_site4197] | 10.04 ± 0.064 |
| CAATCTTTTACGAATACACACACATAAAGAAAAAAA [CACACA_site8367] | 10.2 ± 0.16 |
| AAAAAGAATAAATAAATATAAATAAATAAATATATA [GTGCAC_negctrl_site336] | 9.32 ± 0.2 |
| ACATATAGAAGTATCTATAAACAGTGATAGCATTTT [CACACA_negctrl_site1122] | 10.1 ± 0.15 |
| GCAAGGAAATAATTGATAATATATATATATATATAT [GTGCAC_negctrl_site400] | 9.84 ± 0.4 |
| ATACATAAATATTGATGTACTCATTTAATATATTAT [XGTACX_site3992] | 11.3 ± 1 |
| AATATATATATATATATATATTTTTGTTAGAATATG [XGTACX_negctrl_site58] | 9.52 ± 0.12 |
| TATAATAAATATTAACGTACTCATATATATATATAT [XGTACX_site3871] | 11.1 ± 0.69 |
| GAGTAAATAAATAAATGTACATATATATATATTATC [XGTACX_site8466] | 11 ± 0.54 |
| ATTATCTCCGCCATGTGGACACATATAAGACATTTT [XGTACX_site2889] | 11.1 ± 0.59 |
| ATTGTATATAAATGAGTGCATACTATGTTGTTCTTA [GTGCAC_site9678] | 10.3 ± 0.22 |
| AAAAAAAAAAAAAACACACACACAAAAAAAAATATA [CACACA_site1104] | 10 ± 0.36 |
| CTAAAATACGGACACACACACACATATATATATATA [CACACA_site6138] | 11.6 ± 0.93 |
| TATGTAAATCTCTTAAGAATTCGCTATATCTCTTTT [CACACA_negctrl_site1180] | 9.46 ± 0.28 |
| ATATAAGCGTATACATGTACATATATATCTTTGTAA [XGTACX_site2742] | 11.3 ± 0.68 |
| AGGCTACGAATAGAATGTACCCGAAATAAGGAATAT [XGTACX_site6012] | 11.4 ± 0.98 |
| TTTTTTTTTTCAAATGCATGCAAAAAAAAAAAAATA [TGCATGCA_site945] | 10 ± 0.5 |
